The list shows a part of the results. Repeats are few or missing, and single values can be far off.
Columns and labels:
[1] = test system: Mef2d microexon dual Nano/Firefly luciferase splicing reporter in Neuro-2a cells; assay: B-score of Firefly/Nano luminescence ratio, V1 Mef2d microexon reporter (B-score (plate-normalised)); higher = more Mef2d microexon inclusion; details: 24 h
[2] = test system: Mef2d microexon dual Nano/Firefly luciferase splicing reporter in Neuro-2a cells; assay: B-score of Nano/Firefly luminescence ratio, V2 Mef2d microexon reporter (B-score (plate-normalised)); higher = more Mef2d microexon inclusion; details: 24 h
[3] = test system: Ergic3 microexon (endogenous); assay: delta PSI of alternative exon relative to 0.4% DMSO control (RT-PCR) (percentage points); higher = more exon inclusion; details: concentration: not stated (optimised per compound); Neuro-2a
Method: (§1)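 Reads PSI of the Mef2d reporter microexon and of endogenous mouse neural alternative exons. dPSI is relative to the 0.4% DMSO control, single replicate.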

[4] = test system: Mast2 alternative exon (endogenous); assay: as above; details: concentration: not stated (optimised per compound); Neuro-2a
Method: as §1

[5] = test system: Mgrn1 alternative exon (endogenous); assay: as above; details: concentration: not stated (optimised per compound); Neuro-2a
Method: as §1

[6] = test system: Zdhhc20 alternative exon (endogenous); assay: as above; details: concentration: not stated (optimised per compound); Neuro-2a
Method: as §1
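Wherever B-score of Nano/Firefly luminescence ratio, V2 Mef2d microexon reporter is given: compounds at 4 µM (PKI library 0.5 µM) on Dox-inducible N2A Flp-In cells with PEST-tagged luciferases, 384-well plates, B-score from per-plate median-polish residual over median absolute residual.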
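Wherever delta PSI of alternative exon relative to 0.4% DMSO control (RT-PCR) is given: exons read include endogenous Mef2d, Mast2, Ergic3 and Trappc9 microexons plus the longer neural-regulated Zdhhc20, Mgrn1 and Asph cassette exons, alongside the reporter microexon.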

Question: `COc1ccc2c(COC(=O)c3cccc(OCc4c(C)noc4C)c3)cc(=O)oc2c1` (4 µM) was tested. Which B-score [1] did it give?
Answer: Its B-score is -6.37.

Question: What about the B-score [2] of the same molecule?
Answer: The B-score was -10.5.

Question: With `N[C@@H](CSC(c1ccccc1)(c1ccccc1)c1ccccc1)C(=O)O` [S-Trityl-L-cysteine] (4 µM) as the molecule, how does the B-score [1] read?
Answer: Its B-score is -5.15.

Question: And the B-score [2]?
Answer: The B-score was -8.9.

Question: Which B-score [1] does the source give for `NC(=NOC(=O)N1CCOCC1)c1ccc(Cl)cc1` (4 µM) here?
Answer: The B-score was 6.65.

Question: And the B-score [2]?
Answer: The B-score was 2.4.

Question: For `COc1ccccc1N1CCN(C(=O)c2cc(OC)c(OC)c(OC)c2)CC1` (4 µM), which B-score [1] is on record?
Answer: Its B-score is -7.33.

Question: And the B-score [2]?
Answer: Its B-score is -7.27.

Question: Which B-score [1] does the source give for `CCC(=O)Oc1c(Cc2ccccc2)c(=O)oc2ccccc12` (4 µM) here?
Answer: The B-score was -5.01.

Question: What about the B-score [2] of the same molecule?
Answer: Its B-score is -4.25.

Question: How did the B-score [1] turn out when `CN1CCN(c2ccc(OC(F)(F)F)c(Nc3ncc4c(n3)-c3c(c(C(N)=O)nn3CCO)CC4)c2)CC1` (0.5 µM) was run?
Answer: Its B-score is -7.5.

Question: What about the B-score [2] of the same molecule?
Answer: Its B-score is -7.41.

Question: For `COC(=O)Nc1nc2cc(C(=O)c3ccccc3)ccc2[nH]1` (4 µM), which B-score [1] is on record?
Answer: Its B-score is -9.94.

Question: What about the B-score [2] of the same molecule?
Answer: The B-score was -14.3.

Question: For `COC(OC)C(C)=NNC(N)=S` (4 µM), which B-score [1] is on record?
Answer: The B-score was 12.9.

Question: And the B-score [2]?
Answer: Its B-score is 30.3.

Question: For `COC(=O)Nc1nc2cc(C(=O)c3cccs3)ccc2[nH]1` [Nocodazole] (4 µM), which B-score [1] is on record?
Answer: The B-score was -8.77.

Question: And the B-score [2]?
Answer: Its B-score is -15.7.

Question: For `O=C1C=CC(=O)N1c1ccc(Cl)c(Cl)c1` (4 µM), which B-score [1] is on record?
Answer: Its B-score is 3.37.

Question: And the B-score [2]?
Answer: Its B-score is 4.87.

Question: Which results are given for `Cc1noc(C)c1C(=O)ON=C(N)c1ccc(C(F)(F)F)cc1` (4 µM)?
Answer: B-score [1]: 18; B-score [2]: 2.48

Question: Which B-score [1] does the source give for `O=C(Nc1ccccc1)Sc1cc(C(F)(F)F)cc(C(F)(F)F)c1` (4 µM) here?
Answer: Its B-score is 16.6.

Question: What about the B-score [2] of the same molecule?
Answer: Its B-score is -0.422.

Question: Which results are given for `CCOC(=O)c1cc(C)nc(Sc2ccccc2NC(=O)c2ccccc2)c1C#N` (4 µM)?
Answer: B-score [1]: 3.03; B-score [2]: 1.28

Question: With `CC(=O)c1sc(-c2ccccc2)cc1NS(=O)(=O)c1ccc(C)c(Cl)c1` (4 µM) as the molecule, how does the B-score [1] read?
Answer: Its B-score is 2.83.

Question: And the B-score [2]?
Answer: Its B-score is 36.3.

Question: Which B-score [1] does the source give for `COc1ccc(OC)c(C(=O)c2cc(OC)c(OC)c(OC)c2)c1` (4 µM) here?
Answer: The B-score was -7.55.

Question: And the B-score [2]?
Answer: Its B-score is -7.66.

Question: `NC(CCS(=O)(=O)c1ccc(Cl)cc1)=NOC(=O)c1ccccc1Cl` (4 µM) was tested. Which B-score [1] did it give?
Answer: The B-score was 3.15.

Question: And the B-score [2]?
Answer: Its B-score is 6.32.

Question: With `COC(=O)/C=C1/OC(c2ccc(Cl)cc2)=CC1=O` (4 µM) as the molecule, how does the B-score [1] read?
Answer: Its B-score is -2.06.

Question: What about the B-score [2] of the same molecule?
Answer: Its B-score is -6.46.

Question: With `Cc1ccc(NC(=O)c2cccc(C(C)(C)C#N)c2)cc1Nc1ccc2ncn(C)c(=O)c2c1` (0.5 µM) as the molecule, how does the B-score [1] read?
Answer: The B-score was 4.64.

Question: What about the B-score [2] of the same molecule?
Answer: The B-score was 5.89.

Question: How did the B-score [1] turn out when `O=C(c1cnn(C(=O)c2nn(-c3ccc(Cl)cc3)cc2O)c1)c1ccccc1O` (4 µM) was run?
Answer: The B-score was -7.79.

Question: What about the B-score [2] of the same molecule?
Answer: The B-score was -9.18.

Question: Which results are given for `Cc1nc2sccn2c1-c1csc(Nc2ccc(N(C)C)cc2)n1` (4 µM)?
Answer: B-score [1]: -8.33; B-score [2]: -9.22

Question: With `CS(=O)c1sc(Br)c2c1C(=O)CCC2` (stereo not drawn) (4 µM) as the molecule, how does the B-score [1] read?
Answer: Its B-score is -1.4.

Question: And the B-score [2]?
Answer: Its B-score is -3.87.

Question: `CC(C)NCC(O)Cn1c2c(c3ccccc31)CCc1c-2cnn1-c1ccccc1` (stereo not drawn) (4 µM) was tested. Which B-score [1] did it give?
Answer: Its B-score is -9.58.

Question: What about the B-score [2] of the same molecule?
Answer: The B-score was -2.28.

Question: With `CC1=C(c2ccccc2)C(=NOS(=O)(=O)c2ccc(C)cc2)CC1` (4 µM) as the molecule, how does the B-score [1] read?
Answer: Its B-score is 0.759.

Question: What about the B-score [2] of the same molecule?
Answer: The B-score was 3.55.

Question: `CON=C1CCCc2c(C(=O)NN=Cc3ccc(Cl)cc3)sc(SC)c21` (4 µM) was tested. Which B-score [1] did it give?
Answer: The B-score was -6.49.

Question: What about the B-score [2] of the same molecule?
Answer: Its B-score is -9.34.

Question: How did the B-score [1] turn out when `COc1ccc(C)cc1C(=O)CCC(=O)Nc1nc2ccccc2[nH]1` (4 µM) was run?
Answer: The B-score was -0.075.

Question: And the B-score [2]?
Answer: Its B-score is -8.59.

Question: How did the B-score [1] turn out when `Br.Cc1ccc(C2=Nn3c(nnc3-c3cc(Cl)cc(Cl)c3)SC2)cc1` (4 µM) was run?
Answer: The B-score was -2.61.

Question: What about the B-score [2] of the same molecule?
Answer: The B-score was -4.96.

Question: Which B-score [1] does the source give for `Cc1ccc(C(=O)C=CSc2ncc(C(F)(F)F)cc2Cl)cc1` (4 µM) here?
Answer: The B-score was -2.63.

Question: And the B-score [2]?
Answer: Its B-score is -7.55.

Question: `O=[N+]([O-])c1ccc(N/N=C/c2cc(Cl)cc(Cl)c2O)nc1` (4 µM) was tested. Which B-score [1] did it give?
Answer: Its B-score is -9.44.

Question: And the B-score [2]?
Answer: The B-score was -1.49.

Question: Which results are given for `COc1cc(OC)c(NC(=O)Nc2ncc(C)s2)cc1Cl` (4 µM)?
Answer: B-score [1]: 0.394; B-score [2]: 6.11

Question: Which results are given for `O=C(NCCCn1ccc2ccccc21)c1n[nH]c2ccccc12` (4 µM)?
Answer: B-score [1]: -3.43; B-score [2]: -5.62

Question: Which B-score [1] does the source give for `COc1ccc2ccccc2c1C=Nc1ccc(-c2ccc(N=Cc3c(OC)ccc4ccccc34)cc2)cc1` (4 µM) here?
Answer: The B-score was -2.37.

Question: What about the B-score [2] of the same molecule?
Answer: The B-score was -4.11.

Question: How did the B-score [1] turn out when `COc1cc2c(cc1OC)C(c1ccc(Cl)cc1Cl)N(c1ccc(C)cc1)C(=O)C2` (stereo not drawn) (4 µM) was run?
Answer: Its B-score is -7.31.

Question: And the B-score [2]?
Answer: The B-score was -8.23.

Question: How did the B-score [1] turn out when `C=CC[C@H](N)C(=O)O` [L-allylglycine] (4 µM) was run?
Answer: The B-score was 8.78.

Question: And the B-score [2]?
Answer: Its B-score is 2.9.

Question: `CC1(c2ccc([N+](=O)[O-])cc2)NN=C(c2ccccc2)S1` (stereo not drawn) (4 µM) was tested. Which B-score [1] did it give?
Answer: The B-score was 13.8.

Question: And the B-score [2]?
Answer: The B-score was 2.9.

Question: How did the B-score [1] turn out when `O=C(COc1ccc(C2=Nc3ccccc3NC(c3ccccc3)C2)cc1)Nc1ccccc1` (stereo not drawn) (4 µM) was run?
Answer: Its B-score is 3.37.

Question: What about the B-score [2] of the same molecule?
Answer: Its B-score is 1.12.

Question: For `Oc1ccccc1/C=N/NC(=S)Nc1cc(C(F)(F)F)ccc1Cl` (4 µM), which B-score [1] is on record?
Answer: Its B-score is -9.16.

Question: And the B-score [2]?
Answer: Its B-score is -7.27.

Question: `CC(C=Cc1ccccc1)=NOC(=O)c1c(-c2c(Cl)cccc2Cl)noc1C` (4 µM) was tested. Which B-score [1] did it give?
Answer: The B-score was 2.56.

Question: And the B-score [2]?
Answer: The B-score was 6.46.

Question: Which results are given for `CCN1C(=CC(=S)Nc2ccccc2)Sc2ccccc21`?
Answer: delta PSI of alternative exon [3]: 1.96; delta PSI of alternative exon [4]: 4.31; delta PSI of alternative exon [5]: 5.69; delta PSI of alternative exon [6]: 1.87

Reference: the supplement of paper PMC11283458
